In all, about 48,000 compounds went through this assay and about 450 (0.94%) were called active. Inconclusive results (about 19%) are left out. The call rests on the fitted dose curve; in most records, active means well fitted inhibition curve with a large enough effect; inconclusive means small, poorly fitted or top-dose-only effect; inactive means no such curve, though single readings can be large or run the other way. Some of the results follow.
assay: Primary qHTS for Identification of Small Molecule Inhibitors of Huntingtin Promoter Activity; details: HEK293 HTT promoter firefly luciferase reporter (activity 0% = vehicle and -100% = no light), 24 h; series mostly up to 57.5 µM; activity change, negative = inhibition: at the top concentration; further: nearly all actives have a fitted effect of over 50% in size
Procedure, shortened: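 Quantitative HTS used concentration series of up to 57.5 uM final on HEK293 luciferase reporter cells, 24 h at 37 degrees C. Readout was Dual-Glo firefly luminescence.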
Potency means the concentration at half of the fitted maximal effect.

Compound | activity change, negative = inhibition | Potency
CCCS(=O)c1ccc2nc(NC(=O)OC)[nH]c2c1 (stereo not given) | inactive | 
CCN(C(=O)CSc1nnc(-c2cc3occc3n2C)n1-c1ccccc1C)c1cccc(C)c1 | inactive: -16% | 
COc1ccc(-c2cn3c(n2)sc2cc(C(=O)NCCCN4CCCCC4)ccc23)cc1 | inactive: -22.1% | 
CCc1ccc(CNC(=O)CSc2cc(=O)n(CC)c3ccccc23)cc1 | inactive: -20.3% | 
CCNC(=O)c1c(C)oc2ncn(C)c(=O)c12 | inactive: -16.5% | 
Cc1nn(CCCC(=O)Nc2cc(C(F)(F)F)ccc2Cl)c(=O)c2c1sc1ccccc12 | inactive: 3.93% | 
CCc1nn(CC(=O)N(CC)Cc2ccccc2)c(=O)c2cc3occc3n12 | inactive: -24.7% | 
CCc1ccc(NS(=O)(=O)c2ccc3[nH]cc(C(=O)NCc4ccc(C)cc4)c(=O)c3c2)cc1 | inactive: -22.2% | 
CCOc1ccc(-n2c(=O)c3c4c(sc3n(Cc3cccc(C)c3)c2=O)CCCC4)cc1 | inactive: -5% | 
Clc1ccc2nc(Nc3ccccc3Cl)nc(-c3ccccc3)c2c1 | inactive: 0% | 
CC(=O)O[C@@H]1C(=O)O[C@@H]2[C@H]1OC(=O)[C@@H]2OC(C)=O | inactive: -10.2% | 
Cc1ccc(-c2cn3c(n2)sc2cc(C(=O)NC4CCCc5ccccc54)ccc23)cc1 (stereo not given) | inactive: 47.4% | 
CCOCCCNC(=O)C1CCN(c2cc(C)nc3c(-c4ccc(Cl)cc4)c(C)nn23)CC1 | inactive: -7.14% | 
CCc1ccc(NCc2cc3cc4c(cc3n(CC(=O)Nc3ccccc3Cl)c2=O)OCO4)cc1 | inactive: -35.6% | 
CCOc1ccccc1NC(=O)Nc1cc(C(=O)NCc2ccc(C)cc2)ccc1N1CCCC1 | inactive: -31.7% | 
COc1ccc(OC)c(NC(=O)c2c(NCc3ccc(OC)c(OC)c3)sc3c2CCC3)c1 | inactive: -7.43% | 
Cc1ccc(NC(=O)c2cc3c(-c4ccccc4)nn(-c4ccccc4)c3s2)cc1 | inactive: 7.7% | 
O=C(Nc1ccc(Br)cc1F)C(NS(=O)(=O)c1cccc2nsnc12)c1ccccc1 (stereo not given) | inactive: -27% | 
COc1ccc(NC(=O)Cn2c(=O)n(CC(=O)NCCc3ccccc3)c(=O)c3ccccc32)cc1 | inactive: 2.35% | 
O=C(Nc1cc(-c2nc3ccccc3o2)ccc1Cl)c1ccc(Br)o1 | inactive: 25.4% | 
Cc1c(C(=O)NCc2ccccc2)sc2nc[nH]c(=O)c12 | inactive: 12.8% | 
Cc1ccc(CCNc2nc3c(S(=O)(=O)c4ccccc4)nnn3c3ccsc23)cc1 | inactive: -9.18% | 
COc1cc(-c2noc(-c3ccc(N(C)C)c([N+](=O)[O-])c3)n2)cc(OC)c1OC | inactive: -3.96% | 
Cc1ccccc1Cn1c2ccccc2c2cnn(CC(=O)NCCCc3ccccc3)c(=O)c21 | inactive: 9.94% | 

Compound | activity change, negative = inhibition | Potency
O=C(Cn1c(-c2cccs2)cc2cc(F)ccc21)N1CCN(c2cccc(Cl)c2)CC1 | inactive: -24.3% | 
CC(=O)Nc1ccc(S(=O)(=O)NC2(C(F)(F)F)NC(=O)N(c3ccccc3F)C2=O)cc1 (stereo not given) | inactive: -4.72% | 
CCC1CN(C(=O)Nc2cccc(OC)c2)c2ccccc2O1 (stereo not given) | inactive: -28.1% | 
COc1ccc2c(c1)c1c(c(=O)n(-c3ccc(F)c(Cl)c3)c(=O)n1CC(N)=O)n2C | inactive: -4.26% | 
COc1cccc2c1cc1c(=O)n(CC(=O)O)nc(C)n12 | inactive: 8.65% | 
CCOc1ccc(Nc2sc(C(=O)c3ccc4c(c3)OCO4)c(N)c2S(=O)(=O)c2ccc(C)cc2)cc1 | inactive: -27.4% | 
COc1ccccc1CNC(=O)CSc1cc(=O)n(C)c2ccccc12 | inactive: 9% | 
COc1ccc(-c2cc(C(F)(F)F)nc(NCc3ccc(Cl)cc3)n2)cc1 | inactive: -19.3% | 
CC1CCCCN1S(=O)(=O)c1cc2c(=O)nc3ccccn3c2cc1Cl (stereo not given) | inactive: -2.23% | 
CCOc1ccc(C2C(C(=O)Nc3ccccc3OC)=C(C)Nc3c(C(=O)Nc4cccc(C)c4)cnn32)cc1 (stereo not given) | inactive: -8.9% | 
O=C1CC(c2nnc(Cc3cccc(Cl)c3)o2)CN1c1ccccc1 (stereo not given) | inactive: -26.4% | 
COc1cccc(-c2cc(C(=O)Nc3ccc(Br)c(C)c3)[nH]n2)c1 | inactive: 3.71% | 
Cc1ccc2c(c1)cc1c(=O)n(Cc3ccc(Cl)cc3)nc(C)n12 | inactive: 15.6% | 
COc1ccc(-n2c(=O)c3ccc(C(=O)NCc4ccc(C)cc4)cc3n(Cc3cccc(Cl)c3)c2=O)cc1 | inactive: -16.9% | 
COc1ccc(CN(Cc2ccco2)C(=O)c2ccccc2F)cc1 | inactive: -13.4% | 
CCOc1ccc(CNC(=O)C2CCN(c3nc4ccccc4nc3C(F)(F)F)CC2)cc1OC | inactive: -1.04% | 
CC1CCN(c2oc(-c3cccs3)nc2S(=O)(=O)c2ccccc2)CC1 | inactive: -28.1% | 
CCOC(=O)c1cnc2c(ccc3ccccc32)c1Nc1cccc(Cl)c1 | inactive: -11.6% [at 11.5 µM] | 
COc1ccc(CCNC(=O)c2cnc3sc(N4CCOCC4)nn3c2=O)cc1 | inactive: -2.93% | 
Cc1nn(C)c2c1c(-c1ccccc1)cc(=O)n2Cc1ccc(F)cc1 | inactive: -9.7% | 
COc1ccc(CNC(=O)c2cnc(N3CCCC3)nc2C)c(OC)c1 | inactive: -16.1% | 
Cc1ccc(NC(=O)CCC(=O)N2Cc3ccccc3Oc3ncccc32)cc1Cl | inactive: -11.2% | 
COc1ccccc1CNC(=O)C(NS(=O)(=O)c1ccc2c(c1)CCN2C(C)=O)C(C)C (stereo not given) | inactive: -10% | 
COc1ccc(-c2nc3sc(CCNC(=O)Cc4ccccc4)c(C)n3n2)cc1 | inactive: -10% | 

Compound | activity change, negative = inhibition | Potency
COc1ccc(C2=NS(=O)(=O)N(C)C(C(=O)NC(C)c3ccccc3)=C2)cc1 (stereo not given) | inactive: -23.8% | 
CCN(CC)S(=O)(=O)c1ccc2c(c1)N(CC(=O)NCCCN1CCN(c3ccc(OC)cc3)CC1)C(=O)CO2 | inactive: -8.71% | 
Cc1ccc2oc(C(=O)Nc3ccc(S(=O)(=O)N4CCCCC4C)cc3)cc(=O)c2c1 (stereo not given) | inactive: -2.08% | 
CCCS(=O)(=O)N1CCC(n2c(C)nc3cccnc32)CC1 | inactive: 50.8% [at 11.5 µM] | 
CCN(C(=O)CSc1nc2ccccc2n1CC(=O)N(C)C1CCCCC1)c1ccccc1 | inactive: -21.6% | 
CCOC(=O)c1cc(-c2ccccc2)n(CCC(=O)NCCc2ccccc2)c1C | inactive: -26.2% | 
CCc1ccc(C(=O)c2cn(CC(=O)Nc3cc(OC)ccc3OC)c3ccc(Cl)cc3c2=O)cc1 | inactive: -10.5% | 
CC(=O)N1CCc2c(sc3c2c(=O)n(-c2ccccc2Cl)c(=O)n3Cc2cccc(C)c2)C1 | inactive: -31.6% | 
COc1ccccc1NC(=O)CSc1cn(CC(=O)N2CCCC2)c2ccccc12 | inactive: -4.2% | 
CC(=O)c1cccc(NC(=O)CCc2c(C)nc3nc(CN)nn3c2C)c1 | inactive: -6.31% | 
CCC1CCCCN1C(=O)CSc1nnc(-c2ccc(OC)c(OC)c2)o1 (stereo not given) | inactive: -17.6% | 
Cc1cc(-c2ccccc2)nnc1NCCN1CCOCC1 | inactive: 3.84% | 
CCOC(=O)c1ccc(NC(=O)N2CC3CCCN3c3ccccc32)cc1 (stereo not given) | inactive: -27% | 
O=C(Cn1cc(S(=O)(=O)N2CCCC2)c(S(=O)(=O)N2CCCC2)c1)Nc1ccc(F)cc1 | inactive: -2.29% | 
Cc1ccc2nc(-c3cccs3)c(Nc3ccc4c(c3)OCCO4)n2c1 | inactive: 26.8% | 
CCOc1ccc(NC(=O)c2ccc(F)c(S(=O)(=O)N(Cc3ccc(C(=O)OC)cc3)Cc3ccc(OC)c(OC)c3)c2)cc1 | inactive: -26.1% | 
O=C(Cn1cc(C(=O)c2ccco2)c2ccccc21)Nc1ccccc1 | inactive: -22.8% | 
CCOc1ccc(N2CC(C)Cn3c2nc2c3c(=O)n(Cc3c(F)cccc3Cl)c(=O)n2C)cc1 (stereo not given) | inactive: -6.62% | 
CN(C)c1ncc(C(=O)NCc2ccc(Cl)cc2)cn1 | inactive: -29.4% | 
COc1ccc(Cl)cc1Nc1ccc2cc(S(=O)(=O)N3CCCCC3)ccc2n1 | inactive: -12.6% | 
O=C(CSc1ncc(-c2ccccc2)[nH]1)Nc1cccc(Br)c1 | inactive: -11% | 
NC(N)=Nc1nc(CSCC/C(N)=N/S(N)(=O)=O)cs1 | inactive: 3.95% | 
Cc1ccc(-c2nnn3c2nc(NC2CCC(C)CC2)c2ccccc23)cc1 (stereo not given) | inactive: 2.17% | 
CCOCCc1nnc(NC(=O)C(=O)c2cc(C)n(-c3ccc(Cl)cc3)c2C)s1 | inactive: -17.6% | 

Compound | activity change, negative = inhibition | Potency
COC(=O)CN1C(C(=O)c2ccccc2)=C(OC(=O)c2ccc(F)cc2)c2ccccc2S1(=O)=O | inactive: -6.73% | 
Cc1ccc(S(=O)(=O)c2cnc(SCC(=O)Nc3ccc4c(c3)OCCO4)[nH]c2=O)cc1C | inactive: -4.91% | 
COc1cccc(-n2c(C)nc3cc(C(=O)O)ccc32)c1 | inactive: -4.52% | 
COc1cccc(-c2nc3c(C#N)c[nH]n3c2NC2CCCC2)c1OC | inactive: -19.5% | 
CC1CCCCN1C(=O)c1ccc2c(c1)N(Cc1ccc(F)cc1)C(=O)c1ccccc1S2(=O)=O (stereo not given) | inactive: -18.1% | 
COc1ccc(OC)c(CNC(=O)c2cc3ccc4cccnc4c3[nH]2)c1 | inactive: 3.91% | 
CC1CCN(S(=O)(=O)c2ccc3nc(NCc4ccc(F)cc4)ccc3c2)CC1 | inactive: -25.1% | 
Cc1ccccc1Nc1c(-c2c[nH]c3ccccc23)nc2ccccn12 | inactive: 20.9% | 
CCn1nnc2cc(C(=O)Nc3ccc(C)cc3Br)ccc21 | inactive: 29.2% | 
O=C(Cn1nnc2sc(-c3ccccc3)cc2c1=O)Nc1cccc(C(F)(F)F)c1 | inactive: -11.6% | 
CC(C)(C)OC(=O)N1CCC(c2nnc(SCc3ccccc3F)o2)CC1 | inactive: -33.1% | 
O=c1c2oc3ccccc3c2n(Cc2ccccc2)c(=O)n1Cc1ccco1 | inactive: -10.2% | 
COc1ccc(C)cc1NC(=O)C(=O)NCCc1csc2nc(-c3ccccc3F)nn12 | inactive: -1.71% | 
CCc1ccccc1NC(=O)CN(c1ccc(OC)cc1)S(=O)(=O)c1c(C)n[nH]c1C | inactive: -29.9% | 
Cc1cccc(-c2nc3scc(CCNS(=O)(=O)c4ccc(F)cc4C)n3n2)c1 | inactive: -21.8% | 
Cc1ccc(NC(=O)c2cc(S(=O)(=O)NCCC3=CCCCC3)ccc2F)cc1C |  | active: 28.2 µM
Cc1ccn2c(c1)nc(=O)c1cc(S(=O)(=O)N3CCCCC3)c(Cl)cc12 | inactive: -4.24% | 
CCc1ccc(NC(=O)c2sc3nc(C)c(C(=O)Nc4ccc(C)cc4C)c(-c4ccco4)c3c2N)cc1 | inactive: -26.5% | 
Cc1oc(-c2ccccc2)nc1CNC(=O)NC1CCCCC1 | inactive: 0% | 
Cc1c(NC(=O)c2cc(-c3ccc(Br)cc3)on2)c(=O)n(-c2ccccc2)n1C | inactive: -20.9% | 
Cc1ccc(S(=O)(=O)c2nnn3c2nc(N2CCC(C)CC2)c2cc(Cl)ccc23)cc1C | inactive: -27.2% | 
CCN1C(=O)c2ccccc2S(=O)c2ccc(C(=O)N3CCN(c4ccccc4)CC3)cc21 (stereo not given) | inactive: -16.4% | 
CCOC(=O)c1c(NC(=O)/C=C/c2ccc(OCC)c(OC)c2)sc2c1CCC2 | inactive: -7.46% | 

From PubChem BioAssay AID1508623 (National Center for Advancing Translational Sciences (NCATS), 2021)
